Out of some 48,000 compounds screened, about 550 (1.1%) were called active. Roughly 4% stayed inconclusive and do not appear here. Rule as the data show it: active = potency below about 15 µM; inconclusive = mostly about 16 µM to 33 µM; inactive = weaker than that. The list shows a part of the results.
Each compound was assayed against Lysosomal acid glucosylceramidase (Homo sapiens) (UniProt P04062) (assay: Glucocerebrosidase). Settings: purified enzyme, resorufin glucoside fluorescence (screen aimed at inhibitors), 20 min.
Sequence of UniProt P04062 (P04062 whole entry, looked up): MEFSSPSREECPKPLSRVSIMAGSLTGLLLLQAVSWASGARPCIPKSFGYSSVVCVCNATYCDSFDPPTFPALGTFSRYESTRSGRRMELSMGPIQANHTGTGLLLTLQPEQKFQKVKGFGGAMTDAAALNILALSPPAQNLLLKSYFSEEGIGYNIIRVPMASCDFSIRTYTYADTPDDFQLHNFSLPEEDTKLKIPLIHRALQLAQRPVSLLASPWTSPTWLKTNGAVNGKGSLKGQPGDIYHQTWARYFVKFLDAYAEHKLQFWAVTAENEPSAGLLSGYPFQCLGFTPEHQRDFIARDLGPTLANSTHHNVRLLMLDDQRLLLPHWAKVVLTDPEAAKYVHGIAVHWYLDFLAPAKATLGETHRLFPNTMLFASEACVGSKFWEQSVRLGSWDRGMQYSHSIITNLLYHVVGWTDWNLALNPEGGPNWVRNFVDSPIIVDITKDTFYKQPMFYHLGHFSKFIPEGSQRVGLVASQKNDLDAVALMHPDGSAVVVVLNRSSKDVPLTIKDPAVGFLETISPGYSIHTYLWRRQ
How it was run: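 Compounds titrated against 0.2 nM normal enzyme, 30 uM resorufin beta-D-glucopyranoside substrate, citrate/phosphate buffer with taurocholate and tween-20, pH 5.9. Reaction ran 20 min at room temperature; fluorescence (Ex 548/Em 600) gave AC50.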
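Also: the screen sought inhibitors.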
Potency is read from the fitted curve at half-maximal effect.

Potency, inactive:
CN(C)C(=O)CSc1nnc(CCNC(=O)OC(C)(C)C)o1 > 76.9 µM
CC1CN(c2ccccc2)C(=O)CS1 (centres undefined) > 76.9 µM
COc1ccccc1CN(CC(=O)NCc1ccco1)C(=O)CNS(=O)(=O)c1ccc(C)cc1 > 76.9 µM
Cc1ccc2c3c(c(SCC(=O)Nc4nonc4C)nc2c1)CCCC3 > 76.9 µM
CSc1nnc(-c2nnc(SC)n2-c2ccccc2)n1-c1ccccc1 > 76.9 µM
Fc1ccc(Cn2nnnc2CN2CCN(C3CCCC3)CC2)cc1 > 76.9 µM
CCCCS(=O)(=O)Nc1ccc2ncn(C)c(=O)c2c1 > 76.9 µM
N#Cc1nc(-c2ccc(Cl)cc2)oc1NCc1ccco1 > 76.9 µM
Cc1ccc(S(=O)(=O)Nc2cccc3ncccc23)s1 > 76.9 µM
CCOc1ccccc1-n1c(SCC(N)=O)nnc1-c1ccco1 > 76.9 µM
CC(=O)c1cccc(NS(=O)(=O)N2CCCCC2)c1 > 76.9 µM
COc1ccc(-c2nc(C#N)c(NC(C)C)o2)cc1 > 76.9 µM
O=C(O)c1ccc(S(=O)(=O)Cc2ccccc2)cc1 > 76.9 µM
CCCCn1c(=O)n(C)c(=O)c2c(C(F)(F)F)cc(-c3ccncc3)nc21 > 76.9 µM
CCCn1c(SCC(=O)N2CCc3ccccc32)nnc1-c1ccco1 > 76.9 µM
CCc1cc2c(=O)c(-c3ccc4c(c3)OCCO4)coc2cc1OC(=O)c1ccco1 > 76.9 µM
CCn1ncc(Br)c1C(=O)N(C)C12CC3CC(CC(C3)C1)C2 > 76.9 µM
COc1ccc(-c2cc(=O)[nH]c(NCc3ccccc3)n2)cc1 > 76.9 µM
O=C(c1ccc(N2CCOCC2)nc1)N1CCCCC1 > 76.9 µM
COc1ccccc1OCCCn1cc(C#N)c2ccccc21 > 76.9 µM
CCN(CCCNC(=O)CCNC(=O)Cn1cnc2ccccc2c1=O)c1ccccc1 > 76.9 µM
CCc1nnc(NC(=O)CSc2nnnn2-c2cccc(C(=O)OC)c2)s1 > 76.9 µM
Cc1ccccc1-n1c(=O)cc(NCc2ccc3c(c2)OCO3)[nH]c1=O > 76.9 µM
COc1ccc(CNC(=O)CN(C(=O)c2cc3sccc3n2C)C2CCCC2)cc1 > 76.9 µM
CCOC(=O)C1CCN(C(c2cc3cc(C)cc(C)c3[nH]c2=O)c2nnnn2C2CCCCC2)CC1 (centres undefined) > 76.9 µM
Cc1cc(NC(=O)CCCN2C(=O)c3cccnc3C2=O)no1 > 76.9 µM
CC1=Nn2c(nnc2-c2ccc(F)cc2)SC1 > 76.9 µM
COCCNS(=O)(=O)c1cc(-c2nn(C)c(=O)c3ccccc23)ccc1C > 76.9 µM
CC(C)(C)c1csc(NC(=O)Cn2cnc3ccccc3c2=O)n1 > 76.9 µM
COc1cc2c(C(=O)NCc3ccc(C)o3)cn(CC(C)C)c(=O)c2cc1OC > 76.9 µM
CCCN1Cc2cccc(C(=O)NCc3cccs3)c2C1=O > 76.9 µM
Clc1cccc(-c2nc(-c3ccccn3)no2)c1 > 76.9 µM
CCn1c(SCC(=O)Nc2nccs2)nnc1-c1ccncc1 > 76.9 µM
O=C(NCC1CCCO1)c1coc2nc3ccccc3nc12 (centres undefined) > 76.9 µM
CCOC(=O)N1CCN(C(=O)Cn2c(=O)sc3ccccc32)CC1 > 76.9 µM
O=C(Nc1ccon1)c1cccc(Cl)c1 > 76.9 µM
COc1ccc2c(c1)CCc1c(C(=O)Nc3c(C)n(C)n(-c4ccccc4)c3=O)noc1-2 > 76.9 µM
Cn1c(=O)n(CC(N)=O)c2ccccc21 > 76.9 µM
CC1(C)CC(=O)C2=C(C1)OC(N)=C(C#N)C21CCN(C(=O)OCc2ccccc2)CC1
CC12CCC(=O)N1C(C(=O)OCC(=O)Nc1sccc1C#N)CS2 (centres undefined) > 76.9 µM
O=C(O)Cn1cc(C(=O)C2CC2)c2ccccc21 > 76.9 µM
CCOC(=O)c1ccccc1NC(=O)Cn1cnc2c(oc3ccccc32)c1=O > 76.9 µM
CCOc1ccc(N(CCC#N)S(=O)(=O)c2ccc(OC)cc2)cc1 > 76.9 µM
CCOC(=O)c1ccc2ncc(C(=O)OCC)c(NCc3ccco3)c2c1 > 76.9 µM
Cc1cc(C(C)(C)C)cc(S(=O)(=O)NCC(=O)O)c1C > 76.9 µM
Cc1nn(Cc2ccccc2)c(C)c1NC(=O)CSc1nc2sc3c(c2c(=O)n1C)CCC3 > 76.9 µM
O=C(NCc1cccnc1)c1ccccn1 > 76.9 µM
COC(=O)Nc1ccc(C)c(NC(=O)OC)c1 > 76.9 µM
CC(C)c1ccc(NC(=O)CCNS(=O)(=O)c2cccc3nonc23)cc1 > 76.9 µM
CCCC(=O)Nc1ccc(N2CCN(C(=O)c3ccccc3C)CC2)cc1 > 76.9 µM
COc1cc(C2c3c(oc4ccc(C)cc4c3=O)C(=O)N2c2cc(C)ccn2)cc(OC)c1OC (centres undefined) > 76.9 µM
O=C(OCC1CCCN2CCCCC12)c1ccc2c(c1)OCO2 (centres undefined) > 76.9 µM
C=CCn1c(SCn2nnc3ccccc3c2=O)nnc1C1CCCCC1 > 76.9 µM
CCN(CC)CCN1C(=O)C(O)=C(C(=O)c2ccc(C)o2)C1c1ccccn1 (centres undefined) > 76.9 µM
CCOC(=O)C1CCN(CC(O)COc2ccc(C(C)(C)C)cc2)CC1 (centres undefined) > 76.9 µM
CCCCN(C(=O)c1c(C)[nH]c(C(=O)OCC)c1C)c1ccccc1 > 76.9 µM
NC(=O)CN(c1ccccc1)C1SC(=O)N(Cc2ccccc2)C1=O (centres undefined) > 76.9 µM
CCSc1ccccc1C(=O)Nc1nncs1
CCn1c(SCC(=O)Nc2cccc(F)c2)nnc1-c1cc2cc(Br)ccc2o1 > 76.9 µM

From PubChem BioAssay AID360 (National Center for Advancing Translational Sciences (NCATS), 2006)
